Among all 360,000 compounds or so, about 11,000 (3.1%) were called active. The inconclusive results got no clear call from the source; some entries with a clear call stand among them for comparison. Calls come from the whole dose curve; as a rule, active = well fitted inhibition curve with a large enough effect; inconclusive = small, poorly fitted or top-dose-only effect; inactive = no such curve, though single readings can be large or run the other way. Potencies of inconclusive entries are left out as doubtful fits.
These molecules were tested against Schistosoma mansoni thioredoxin glutathione reductase (TGR) (UniProt Q962Y6) (assay: qHTS Assay for the Inhibitors of Schistosoma Mansoni Peroxiredoxins). Conditions: purified TGR, DTNB reduction, TNB absorbance 405 nm; activity change, negative = inhibition: at 114 µM (top of the series) unless noted.
Outline: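 First, TGR (20 nM dispensed) and NADPH were mixed with compound. Second, a 15 min room-temperature incubation followed. Third, further NADPH and then DTNB were added to start the reaction. Finally, TNB absorbance was monitored kinetically.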
% is set by controls: 0 for no effect and ±100 for the full control effect; potency is the fitted concentration of half-maximal effect; tags give direction and shape of the fitted curve.
Note: nearly all actives have a fitted effect of over 60% in size.

| Compound | Potency | activity change, negative = inhibition |
| --- | --- | --- |
| CC1=C/C(=C\c2ccc3c(c2)OCO3)C(=O)S1 | inconclusive [inhibitor, single point] |  |
| Cc1cccc(N2CCN(C(=O)Cn3cccc3)CC2)c1C | active: 50.1 µM |  |
| C#CCOCCOCCOCCNc1nc(N2CCOCC2)nc(N2CCN(C(=O)CCCCCCCCCCNC(=O)Cn3cc(CCCCCN)nn3)CC2)n1 | inconclusive [inhibitor, partial curve] |  |
| Cc1ccc(N2C(=O)C3C4C=CC(CNC(=S)Nc5ccc(Cl)cc5)(O4)C3C2=O)cc1 (configuration not stated) | active: 7.08 µM |  |
| O=C(Cn1ncc(Cl)c(Cl)c1=O)NC1CCCCC1 | active: 25.1 µM |  |
| CCOc1ccc(CN2CCNC(=O)C2CC(=O)NCCCC2CCCC2)cc1 (configuration not stated) | inconclusive [inhibitor, partial curve] |  |
| Cc1ccnc(Nc2nc(-c3ccccc3)cs2)c1 | inconclusive [inhibitor, single point] |  |
| Cc1ccc(S(=O)(=O)N(C)c2ccc(OC(=O)c3ccc(=O)[nH]c3)cc2)cc1 |  | inactive: -1.87% |
| COc1ccc(NS(=O)(=O)c2cc3[nH]c(=O)c(=O)[nH]c3cc2C)cc1OC |  | inactive: 9.67% |
| COc1ccc(N2C(=O)CC(NNC(=O)c3cccnc3)C2=O)cc1 (configuration not stated) | inconclusive [inhibitor, partial curve] |  |
| O=c1[nH]c2cc3c(cc2cc1CN(CCc1ccccc1)Cc1nnnn1C1CCCC1)OCCO3 | active: 44.7 µM |  |
| CCOC(=O)/C(=N/Nc1ccccc1OC)N1CCCc2ccccc21 | active: 39.8 µM |  |
| CN1CCN(c2ccc(NC(=O)c3ccc(-c4ccc(Cl)cc4)o3)cc2)CC1 |  | inactive: 1.2% |
| COc1cc2c(-c3ccccc3C)nc3c(c(C)nn3-c3ccccc3)c2cc1OC | inconclusive [inhibitor, single point] |  |
| COc1ccc(NC2=CC(=S)NC(C)(C)C2)cc1 | active: 35.5 µM |  |
| CC(=O)c1cc(NC(=O)c2ccccc2)c(=O)oc1/C=C/N(C)C | inconclusive [inhibitor, single point] |  |
| O=C(O)c1ccc(COc2ccc3ccccc3c2)o1 | inconclusive [inhibitor, partial curve] |  |
| COc1cccc(OC)c1-c1nn2c(-c3cc(-c4ccccc4)n[nH]3)nnc2s1 | active: 12.6 µM |  |
| O=C(Cn1c(=O)n(Cc2ccco2)c(=O)c2c3c(sc21)CCCCC3)Nc1ccccc1 | active: 10 µM |  |
| O=C(Nc1cc(C(F)(F)F)ccc1Cl)C(Sc1nnc(-c2cccs2)o1)c1ccccc1 (configuration not stated) |  | inactive: -12.4% |
| COc1cc(/C=C2\SC(=S)N(NS(=O)(=O)c3ccc(C)cc3)C2=O)cc(OC)c1OC | inconclusive [inhibitor, partial curve, poor fit] |  |
| COc1ccc(NC(=O)Cn2c(SCc3cccc(Cl)c3)nc3ccncc32)c(OC)c1OC |  | inactive: -3.9% |
| Cc1nnc(NC(=O)c2nc(S(=O)(=O)Cc3ccccc3C)ncc2Cl)s1 | active: 25.1 µM |  |
| O=C(CCn1c(=O)oc2ccccc21)Nc1ccccc1 |  | inactive: 0% |

| Compound | Potency | activity change, negative = inhibition |
| --- | --- | --- |
| CCOC(=O)c1c(-c2ccccc2)[nH]c2ccc(O)cc12 |  | inactive: 3.92% |
| O=C(N/N=C\c1ccc(F)cc1)c1ccc(Cn2cc(Br)c([N+](=O)[O-])n2)o1 | inconclusive [inhibitor, single point] |  |
| COc1cc(OC)cc(-c2c(-c3cccs3)c3cc(-c4ccc(N(C)C)nc4)ccc3n2C)c1 | inconclusive [inhibitor, single point] |  |
| Cc1cc(=O)c2cc(C(=O)c3ccccc3)ccc2[nH]1 |  | inactive: 9.39% |
| CCOC(=O)c1cc(CC)sc1NC(=O)c1cc(OCC)c(OCC)c(OCC)c1 |  | inactive: -16% |
| Cc1nnc(NC(=O)c2oc3ccccc3c2C)s1 |  | inactive: 1.57% |
| c1ccc(-c2cn3c(n2)CCc2ccc4cccnc4c2-3)cc1 | inconclusive [inhibitor, full curve, poor fit] |  |
| CC1(C)Cc2c(c(N3CCCC3)nc3sc4c(N5CCN(CCO)CC5)ncnc4c23)CO1 | inconclusive [inhibitor, partial curve] |  |
| CCOc1cccc(C2C(C(=O)c3ccco3)=C(O)C(=O)N2Cc2ccncc2)c1 (configuration not stated) | inconclusive [inhibitor, partial curve] |  |
| O=C(C1=C(O)C(=O)N(c2ncccn2)C1c1ccc(Cl)c(Cl)c1)c1ccco1 (configuration not stated) | inconclusive [inhibitor, partial curve] |  |
| COc1ccc(S(=O)(=O)N2CCN(C3CCN(Cc4ccccc4)CC3)CC2)cc1 | active: 50.1 µM |  |
| Cn1c(SCC(=O)c2ccc(O)c(O)c2)nnc1-c1ccccc1 | inconclusive [inhibitor, partial curve] |  |
| O=C(c1cccc(Cl)c1)n1nc(-c2ccco2)nc1NCc1cccs1 |  | inactive: -27.4% |
| O=C(NC1CCCCC1)C(c1ccccc1F)N(Cc1ccco1)C(=O)Cn1nnc2ccccc21 (configuration not stated) | inconclusive [inhibitor, partial curve] |  |
| CCN(C(=O)CSc1nnc(-c2ccco2)n1CC)c1c(N)n(Cc2ccccc2)c(=O)[nH]c1=O | inconclusive [inhibitor, partial curve] |  |
| Cc1cccc2cc(CN(Cc3nnnn3Cc3ccccc3)C3CCCC3)c(=O)[nH]c12 | inconclusive [inhibitor, full curve] |  |
| Cc1ccc(Nc2c3c(nc4nncn24)CCC3)cc1 | inconclusive [inhibitor, partial curve] |  |
| CNC(=O)c1c(NC(=O)CCS(=O)(=O)c2ccc(Cl)cc2)sc2c1CCN(C(=O)OC)C2 | inconclusive [inhibitor, partial curve] |  |
| CCN(CC)C(=O)c1ccc(COc2ccccc2Br)o1 | inconclusive [inhibitor, partial curve] |  |
| Cc1oc(-c2ccc3c(c2)OCCO3)cc1C(=O)NCC(=O)O |  | inactive: -4.64% |
| CS(=O)(=O)N(CC(=O)NCCSCc1ccco1)c1ccc(Cl)cc1 | inconclusive [inhibitor, single point] |  |
| COc1cc(CNc2ccc3c(c2)CCC3)cc(OC)c1O | active: 0.316 µM |  |
| Cc1cccc2cc(CN(Cc3nnnn3Cc3ccco3)C3CCCC3)c3nnnn3c12 | inconclusive [inhibitor, partial curve] |  |
| CC(OC(=O)C1CC1)C(=O)Nc1ncc(Cl)cc1Cl (configuration not stated) |  | inactive: -10.3% |

| Compound | Potency | activity change, negative = inhibition |
| --- | --- | --- |
| CC(=C/C(=O)O)/C(=C\c1ccc(Br)o1)C(=O)O | inconclusive [inhibitor, full curve] |  |
| O=C(c1ccc(Cl)c(S(=O)(=O)NCc2ccccc2)c1)N1CCN(c2ccccn2)CC1 |  | inactive: -21.2% |
| CCOC(=O)C1(CCSC)NC(c2ccco2)C2C(=O)N(CC)C(=O)C21 (configuration not stated) | inconclusive [inhibitor, partial curve] |  |
| COCCn1c(C)cc(C(=O)CSc2ccc(NC(C)=O)cc2)c1C | inconclusive [inhibitor, full curve, poor fit] |  |
| COc1cc2c(cc1OC)C1=C(C#N)CN(C3CCCCC3)CN1CC2 | inconclusive [inhibitor, partial curve] |  |
| Cc1ccc(-c2csc(NC(=O)CCNC(=O)c3ccco3)n2)cc1 |  | inactive: -0.764% |
| Cc1cc(/C=C2\C(=O)NC(=O)N(Cc3ccco3)C2=O)c(C)n1-c1ccc(O)cc1 | inconclusive [inhibitor, partial curve] |  |
| Cc1nnc(SCCCN2C(=O)c3ccccc3C2=O)o1 | inconclusive [inhibitor, single point] |  |
| O=c1cc(CN2CCN(Cc3ccccc3)CC2)c2ccc(O)c(O)c2o1 | inconclusive [inhibitor, partial curve] |  |
| CCOc1ccc(NC(=O)c2sc3nc(C)nc(N4CCOCC4)c3c2C)cc1 |  | inactive: -13% |
| COc1cc(-c2nc3ccccc3c(=O)n2N)cc(OC)c1OC |  | inactive: -2.55% |
| N#Cc1ccc(/C=C/C(=O)c2ccco2)cc1 | inconclusive [inhibitor, full curve] |  |
| CCc1ccc(NCc2cc3cc4c(cc3n(CC(=O)Nc3ccc(Cl)cc3)c2=O)OCO4)cc1 | inconclusive [inhibitor, partial curve, poor fit] |  |
| Cc1cc(C)n2nc(SCC(=O)c3cc(C)n(-c4cc(C)on4)c3C)nc2n1 | inconclusive [inhibitor, partial curve, poor fit] |  |
| COc1cccc(N2C(=O)NC(=O)/C(=C/c3ccc4c5c(cccc35)CC4)C2=O)c1 | active: 25.1 µM |  |
| Cc1ccc2c(ccc[n+]2CC(=O)c2ccccc2)c1 | inconclusive [inhibitor, single point] |  |
| COc1ccc2sc(-c3ccccc3OC)c(C#CCCO)c2c1 | inconclusive [inhibitor, full curve] |  |
| COc1ccc(NC(=O)CN(C)C(=O)c2ccc(-c3cccc(C(F)(F)F)c3)o2)cc1 |  | inactive: -31.4% |
| Cc1ccccc1C(=O)Nc1nnc(-c2ccc(F)cc2)o1 |  | inactive: 0.772% |
| Cc1ccc(-c2c3c([nH]c(=S)c2C#N)CCCC3)o1 | inconclusive [inhibitor, full curve, poor fit] |  |
| CCCNC(=O)c1ccc2c(c1)N(Cc1cccc(C)c1)C(=O)c1ccccc1S2 | inconclusive [inhibitor, single point] |  |
| Cc1ccc(C)c(N2CCN(S(=O)(=O)c3ccc4oc(=O)c5ncn(C)c5c4c3)CC2)c1 |  | inactive: -3.67% |
| O=C(NC(=S)Nc1ccccc1)c1cccs1 | active: 7.94 µM |  |
| COc1ccc(S(=O)(=O)N2CCOCC2)cc1NC(=O)c1cccc(-n2cccc2)c1 | inconclusive [inhibitor, single point] |  |

From PubChem BioAssay AID485364 (National Center for Advancing Translational Sciences (NCATS), 2010)
